# Among all 310,000 compounds or so, about 14,000 (4.5%) showed an effect of 50% or more. Effects have a minus sign here. The list shows a part of the results.
# Molecular target: human ether-à-go-go-related gene (hERG) potassium channel (human, UniProt Q12809)
# Assay: primary screen, population patch clamp on CHO cells stably expressing hERG
# 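Further: peak tail current of the secondary pulse compared with the same well before compound.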
# Sequence of human ether-à-go-go-related gene (hERG) potassium channel (Q12809 whole entry, looked up): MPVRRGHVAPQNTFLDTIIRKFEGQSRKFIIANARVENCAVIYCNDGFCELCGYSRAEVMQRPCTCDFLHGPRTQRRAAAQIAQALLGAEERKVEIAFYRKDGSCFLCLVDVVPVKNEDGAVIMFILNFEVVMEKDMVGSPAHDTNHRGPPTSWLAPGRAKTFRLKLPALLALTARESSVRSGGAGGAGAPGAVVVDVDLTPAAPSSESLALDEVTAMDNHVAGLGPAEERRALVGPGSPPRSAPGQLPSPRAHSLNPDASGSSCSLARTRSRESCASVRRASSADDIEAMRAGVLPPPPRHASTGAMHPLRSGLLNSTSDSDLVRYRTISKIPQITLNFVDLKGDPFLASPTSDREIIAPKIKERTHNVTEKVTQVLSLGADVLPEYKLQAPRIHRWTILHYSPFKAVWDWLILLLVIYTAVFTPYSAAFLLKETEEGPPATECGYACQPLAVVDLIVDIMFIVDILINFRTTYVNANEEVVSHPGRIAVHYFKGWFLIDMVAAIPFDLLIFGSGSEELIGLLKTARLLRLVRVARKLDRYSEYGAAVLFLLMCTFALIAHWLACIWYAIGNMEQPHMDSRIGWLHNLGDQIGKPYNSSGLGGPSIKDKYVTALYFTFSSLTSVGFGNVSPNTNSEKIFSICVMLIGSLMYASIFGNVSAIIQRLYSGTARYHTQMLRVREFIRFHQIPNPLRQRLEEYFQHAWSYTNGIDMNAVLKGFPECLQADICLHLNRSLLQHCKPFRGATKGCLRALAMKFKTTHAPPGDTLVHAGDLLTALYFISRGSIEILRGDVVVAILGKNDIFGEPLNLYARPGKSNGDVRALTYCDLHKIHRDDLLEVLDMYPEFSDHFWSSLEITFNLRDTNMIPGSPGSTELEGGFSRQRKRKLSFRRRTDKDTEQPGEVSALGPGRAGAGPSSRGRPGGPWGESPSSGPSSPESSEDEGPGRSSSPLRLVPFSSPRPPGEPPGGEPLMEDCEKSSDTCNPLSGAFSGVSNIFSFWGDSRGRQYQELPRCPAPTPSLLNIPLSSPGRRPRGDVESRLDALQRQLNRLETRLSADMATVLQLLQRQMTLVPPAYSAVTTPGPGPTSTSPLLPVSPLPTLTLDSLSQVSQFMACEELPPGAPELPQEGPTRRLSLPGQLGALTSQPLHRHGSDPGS
row,Structure (SMILES),"hERG current change (%, negative = inhibition) at 10uM [%]"
1,Cn1cnnc1SCc1ccccc1,-1.83
2,O=C(N/N=C/c1cccs1)c1ccc(NC(=O)c2ccccc2Cl)cc1,12.4
3,O=C(Nc1ccc(C(F)(F)F)cc1)c1ccccc1-n1cnnn1,-39.4
4,O=C(Nc1ccc(Cl)cc1)Nc1ccc(S(=O)(=O)Nc2ncccn2)cc1,8.68
5,Oc1cc2c(cc1O)C1c3ccc(O)c(O)c3OCC1(O)C2 (stereo not drawn),18.1
6,N#Cc1c2ccccc2nc2ccccc12,2.22
7,O=C(Nc1ccc2c(c1)OCO2)c1cc(C2CC2)on1,17.5
8,CN(C)/C=N/NC(=O)c1ccccc1,19.2
9,C(=C\c1ccc2ccccc2n1)/c1ccccc1,-6.05
10,CCOC(=O)C1CCN(C(=O)CC(C)c2ccccc2)CC1 (stereo not drawn),5.61
11,COc1cccc(-n2nc3c(=O)n(Cc4ccccc4Cl)nc(C)c3c2C)c1,9.45
12,O=C(CSc1ccsc1[N+](=O)[O-])N1CCCCC1,-4.61
13,CCN1CCN(C(=S)NC(=O)c2cccs2)CC1,-1.01
14,C=CCOc1ccccc1CN1CCN(CCc2ccccc2)C(CCO)C1 (stereo not drawn),-59.4
15,Cc1ccc(C(=O)Nc2cccnc2)cc1S(=O)(=O)N1CCCCCC1,-33.7
16,Cc1ccc(C)c(OCc2nc(-c3cccnc3)no2)c1,8.11
17,CCOc1ccccc1N1CCN(C(=O)CCNS(=O)(=O)c2ccccc2F)CC1,1.84
18,Cc1ccnc(SCC(=O)Nc2sccc2C#N)n1,11.7
19,COc1ccc2c3n([n+]([O-])c2c1)CCN=C3c1ccc(Cl)cc1,-6.11
20,COc1cccc(C(=O)NCC(=O)N/N=C/c2cn[nH]c2-c2ccccc2)c1,-4.6
21,CN1CC(C#N)C2(O)c3ccccc3CCC2C1 (stereo not drawn),9.6
22,O=C(Nc1cccnc1)c1ccc(COc2ccccc2Br)cc1,7.99
23,COc1ccc(Cc2nnc(NC(=O)Nc3ccc(F)cc3)s2)cc1OC,6.9
24,Cc1ccc(Cl)c(OC(=O)Cn2cnc3c2c(=O)n(C)c(=O)n3C)c1,19.6

row,Structure (SMILES),"hERG current change (%, negative = inhibition) at 10uM [%]"
1,CC(C)OCCCNC(=O)c1cccc2c1C(=O)c1ccc(Cl)cc1S2(=O)=O,-6.26
2,COc1ccc(Cl)cc1NC(=O)C1CCN(C(=O)C2CC(=O)N(c3ccc(C)cc3)C2)CC1 (stereo not drawn),-60.4
3,CC(C)NC(=O)CS(=O)(=O)c1ccccc1,-5.05
4,CCc1c(C)nc(SCC(=O)N2CC(C)OC(C)C2)[nH]c1=O (stereo not drawn),-11.5
5,CC(=O)Nc1ccc2sc(NC(=O)CN3CCOCC3)nc2c1,18.7
6,Cc1cccc(CSc2ncnc3nc[nH]c23)c1,-16.6
7,CNC(=S)N1CCN(c2ccc(Cl)c(Cl)c2)CC1,-6.17
8,Cc1cccc(CSc2ccc(-c3cccs3)nn2)c1,-12.3
9,Cc1cc(OCC(O)CN(C)C(=O)C(C)Oc2ccccc2)ccc1Cl (stereo not drawn),-9.56
10,CCNc1nc(N)nc(Oc2ccc(C(=O)OC)cc2)n1,9.43
11,Cc1cc2ccccn2c1C(=O)c1nc(NCc2ccco2)ncc1Cl,15.6
12,CCCn1c(COc2ccccc2)nc2ccccc21,-12.5
13,CCc1ccccc1NC(=O)Nc1ccc(F)cc1,7.35
14,c1ccc(-c2cncn2-c2ccccc2)cc1,-22.2
15,Cc1ccc(CS(=O)Cc2ccc(C(=O)N3CCN(c4ccccn4)CC3)o2)cc1 (stereo not drawn),-10.1
16,O=C(Nc1nc2c(s1)CCCC2)c1cccs1,-0.0237
17,O=S(=O)(Nc1ccc(Br)cn1)c1cccs1,29.4
18,O=C(NC(=S)NCC1CCCO1)c1ccc([N+](=O)[O-])cc1 (stereo not drawn),-16.6
19,C[C@]12CC[C@H](O)CC1=CC[C@@H]1[C@@H]2CC[C@@]2(C)[C@H]1CC[C@]2(C)O,-2.51
20,c1ccc(CCn2nnnc2C(c2cccnc2)N2CCN(c3nc4ccccc4s3)CC2)cc1 (stereo not drawn),-58.7
21,COc1ccc(NC(=O)Nc2ccccc2C(=O)N2CCCC2)cc1,2.56
22,Cc1nc2c(c(C)nn2-c2ccccc2)c(C)c1C,6.19
23,O=C1c2ccsc2SCCN1Cc1cccc(F)c1,-6.8
24,O=c1[nH]c(CSc2ccccn2)nc2c1cnn2-c1ccccc1,-6.32

row,Structure (SMILES),"hERG current change (%, negative = inhibition) at 10uM [%]"
1,CC(=O)N1CCN(c2ccc(NCc3cccc4ccccc34)cc2)CC1,-6.26
2,CC(=O)Nc1cccc(N(C(=O)C2COc3ccccc3O2)C(C(=O)NC2CCCCC2)c2cn(C)nc2C)c1 (stereo not drawn),24.1
3,CCOC(=O)C(Cc1ccccc1)NC(=O)CCc1c(C)nc2nc(C)nn2c1C (stereo not drawn),2.42
4,COc1cc(/C=N/NC(=S)Nc2cccnc2)cc(OC)c1OC,4.89
5,CNC(=S)NNC(=O)c1sccc1OCc1ccc(C)cc1,0.12
6,COCCN(CCOC)C(=O)Nc1ccc(Cl)cc1,-4.35
7,Cc1cccc(C)c1NC(=O)CS(=O)CC(=O)NCCCc1ccccc1 (stereo not drawn),10.4
8,COc1cccc(-c2nnc(-c3ccc(C)o3)o2)c1,-32.5
9,CCCc1nc2oc3c(NCCN4CCOCC4)ncnc3c2c2c1CCCC2,-1.37
10,CCOC(=O)C(C)n1cnc2c(oc3ccccc32)c1=O (stereo not drawn),11.1
11,O=C(NC1CC1)C1CCN(C2CCN(C(=O)c3ccc4cccc(F)c4n3)CC2)CC1,5.42
12,NS(=O)(=O)c1ccc(-c2ccc(/C=C3\NC(=S)NC3=O)o2)cc1,5.83
13,COc1ccc(N(CC(=O)NCCSCc2cccc(Cl)c2)S(C)(=O)=O)cc1Cl,-5.2
14,COc1ccc(-c2nc(CN3CCN(c4cc(C)nc(C)c4)CC3)c(C)o2)c2ccccc12,-73.6
15,O=C1c2ccccc2C(=O)C1c1ccc2ccccc2n1,-13.4
16,Fc1cccc(-c2csc(-c3ccno3)n2)c1,3.8
17,CCOCc1nnc(NC(=O)c2cc(OC)cc(OC)c2)s1,34.5
18,CCCn1nnc(NC(=O)COc2cc(C)ccc2C(C)C)n1,-23.2
19,CCOc1cc(S(=O)(=O)NCc2ccccn2)c(C)cc1C,-15.4
20,CC(=O)c1sc(NC(=O)c2ccc(Cl)cc2)nc1C,9.38
21,CNC(=S)N1N=C(c2ccccc2)CC1c1ccc(Br)cc1 (stereo not drawn),-18.9
22,O=C(CSc1ccc2ccccc2c1)NCCc1ccc(O)c(O)c1,-0.593
23,CCCN1CCN(c2nc3c([nH]2)c(=N)ncn3CC(O)CO)CC1 (stereo not drawn),21.6
24,O=C(c1c(F)cccc1F)N1CCN(S(=O)(=O)c2ccc3c(c2)OCCO3)CC1,-26.8

row,Structure (SMILES),"hERG current change (%, negative = inhibition) at 10uM [%]"
1,O=C(Nc1cc(C(F)(F)F)ccc1Cl)C(Sc1n[nH]c(=O)[nH]c1=O)c1ccccc1 (stereo not drawn),0.149
2,Cc1c(C(=O)NC2CCCc3ccccc32)oc2ccccc12 (stereo not drawn),5.99
3,COc1ccc(C)cc1NC(=O)N1CCC(CO)(CC2CCCCO2)CC1 (stereo not drawn),11.4
4,CCC(O)c1cc2c(cc1NC(=O)c1ccc(C)cc1)OCCO2 (stereo not drawn),8.34
5,CCN1CNC(=S)N(CCc2ccccc2)C1,16.4
6,CCOC(=O)/N=C(/NC(=O)Nc1ccc(C(=O)OCC)cc1)OC,4.19
7,Cc1ccc(S(=O)(=O)N(C)C)cc1NC(=O)COC(=O)c1c(-c2ccccc2)noc1C,-24.8
8,C=CCn1c(SCC(=O)Nc2ccc(NC(=O)c3ccco3)c(OC)c2)nnc1-c1ccncc1,-6.37
9,Cc1cc([N+](=O)[O-])ccc1NC(=O)C(C)NC1CCCCC1 (stereo not drawn),-10.6
10,Cc1c(NC(=O)/C(=C/c2cccs2)c2cccs2)c(=O)n(-c2ccccc2)n1C,-14.5
11,O=C(NCc1n[nH]c(=S)n1-c1ccccc1)c1cccs1,15.3
12,CCOc1ccc(N2CC(C(=O)NCCN3C(=O)S/C(=C\c4ccc(OC)cc4)C3=O)CC2=O)cc1 (stereo not drawn),-6.7
13,O=C(Cc1ccc([N+](=O)[O-])cc1)NCc1cccnc1,6.09
14,Cc1ccsc1C(=O)N1CCCC(CO)(Cc2ccccc2F)C1 (stereo not drawn),8.6
15,CCN1C(=O)CSC1=Nc1ccccc1Cl,13.6
16,Cc1nc(SCC2(C)CC2(Cl)Cl)n[nH]1 (stereo not drawn),16.4
17,COc1cc(CN2CCNC(=O)C2CC(=O)NCCCC2CCCC2)cc(OC)c1 (stereo not drawn),-10.3
18,CSC1=N/C(=C\c2ccccc2C)C(=O)S1,23.9
19,COc1cccc(N/C(N)=N/c2nc(C)cc(=O)[nH]2)c1,12.7
20,COc1ccc(CC(=O)NNc2ncnc3c2cnn3Cc2ccccc2)cc1OC,14.3
21,COc1ccc(C(=O)N/C(=C\c2ccccc2)C(=O)Nc2cccc(C(=O)O)c2)cc1,20.9

# — article PMC4336329 (PLoS ONE, 2015)
